From PubChem BioAssay AID588855 (National Center for Advancing Translational Sciences (NCATS), 2011)
Among all 410,000 compounds or so, about 5,000 (1.2%) were called active. This list was built around the results that the source calls inconclusive (neither active nor inactive); the mix of calls is not that of the screen. Calls follow the shape of the dose curve; as a rule, active = well fitted inhibition curve with a large enough effect; inconclusive = small, poorly fitted or top-dose-only effect; inactive = no such curve, though single readings can be large or run the other way. Potencies beside an inconclusive call are fits to weak or partial responses and may not hold up.

experiment: qHTS for Inhibitors of TGF-b; details: HepG2 CAGA-GFP TGF-b/SMAD3 reporter, GFP fluorescence, 18 h, TGF-beta stimulated, 500 pg/mL final; series mostly up to 46.1 µM; also: nearly all actives have a fitted effect of over 65% in size
Procedure, shortened: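 Read-out: total well GFP (ex488/em500-530) summed from mean per-cell fluorescence. Cells: HEPG2 CAGA-GFP, 1% FBS DMEM, 18 h at 37 degrees C with 500 pg/mL final TGF-beta. Unstimulated wells served as the full-inhibition control; stimulated DMSO wells = 0%.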
Potency is read from the fitted curve at half-maximal effect; tags tell the direction and shape of the fitted curve.

| Compound | Potency |
| --- | --- |
| O=C(C[n+]1cccc(I)c1)c1ccc(F)cc1 | inactive |
| O=C(NC(=S)Nn1cnnc1)c1ccccc1Cl | inactive |
| O=C(COc1ccccc1Cl)Nc1ccc2oc(=O)ccc2c1 | inconclusive: 3.16 µM [inhibitor, single point] |
| COc1ccc(OC)c(NC(=O)Nc2ccc(O)c3ccccc23)c1 | inconclusive: 12.6 µM [inhibitor, partial curve, poor fit] |
| COc1cccc(-c2ncnn2-c2sc3c(c2C#N)CCCCC3)c1OC | inactive |
| COc1ccc(N2C(=O)NC(NC(=O)c3cccnc3)(C(F)(F)F)C2=O)cc1 (stereo not given) | inconclusive: 11.2 µM [inhibitor, partial curve] |
| C=CCN1C(=O)S/C(=C/c2ccc(Sc3nc4ccccc4[nH]3)o2)C1=O | active: 20 µM |
| CS(=O)(=O)N1CCN(c2ccc([N+](=O)[O-])c3cccnc23)CC1 | inactive |
| C/C(=N\Nc1ccc(S(=O)(=O)Nc2ccc(Cl)cc2)cc1[N+](=O)[O-])c1ccc(N2CCOCC2)cc1 | inactive |
| CCNC(=O)C1CCCN(C(=O)Cc2ccc3ccccc3c2)CC1 (stereo not given) | inactive |
| O=C(COc1ccc(Cl)cc1)Nc1nnc(S(=O)(=O)N2CCc3ccccc32)s1 | inconclusive: 22.4 µM [inhibitor, single point] |
| CC(C)(C)C(=O)Nc1cccc(C(=O)c2cccc(NC(=O)C(C)(C)C)c2)c1 | inactive |
| S=C(NCc1ccccc1)Nc1cccc2ccccc12 | inconclusive: 6.31 µM [inhibitor, single point] |
| COc1ccc(-n2c(-c3ccc(OC)c(OC)c3)n[nH]c2=S)cc1 | inconclusive: 6.31 µM [inhibitor, single point] |
| Cc1ccc(-c2cccc(OC(=O)c3ccccc3F)c2)cc1 | inactive |
| COc1ccc(-c2cc(C(F)(F)F)nc(SCCC(=O)NCc3ccccc3)n2)cc1 | inconclusive: 35.5 µM [inhibitor, single point] |
| COc1ccc([C@H]2CC(=O)C=C(c3cccc(OC)c3OC)C2)cc1OC | inconclusive: 35.5 µM [inhibitor, single point] |
| NNC(=O)c1nc(-c2ccccc2)n2c1CCCCC2 | inactive |
| CC(=O)N1CCCN(Cc2cn(-c3ccc(C)cc3)nc2-c2cccc(C)c2)CC1 | inconclusive: 11.2 µM [inhibitor, single point] |
| COc1ccc(C2SCCN2S(=O)(=O)c2ccc(F)cc2)cc1OC (stereo not given) | inconclusive: 35.5 µM [inhibitor, single point] |
| CC(=O)N1c2c(cc(Br)cc2S(=O)(=O)N2CCN(c3cc(C)ccc3C)CC2)CC1C (stereo not given) | inconclusive: 5.01 µM [inhibitor, full curve, poor fit] |
| CCCCc1ccc(NC(=S)Nc2ccc(Nc3ccc(OC)cc3)cc2)cc1 | active: 8.91 µM |
| CCOc1ccc(S(=O)(=O)N2CCN(Cc3ccc4c(c3)OCO4)CC2)cc1C | inconclusive: 35.5 µM [inhibitor, single point] |

| Compound | Potency |
| --- | --- |
| COc1ccc(/C=C2/CCCC(C(=O)C(F)(F)F)=C2O)cc1OC | inconclusive: 4.47 µM [inhibitor, full curve] |
| CCN(C(=O)c1cc2c(=O)n3cccc(C)c3nc2n1CCCOC)C1CCCCC1 | inactive |
| CN(C)c1ccc(C(=O)c2ccc(N(C)C)c3ccccc23)cc1 | inconclusive: 6.31 µM [inhibitor, partial curve, poor fit] |
| Cc1ccc(S(=O)(=O)c2nnn3c2nc(N2CCN(c4ccccc4F)CC2)c2cc(Cl)ccc23)cc1C | inactive |
| CN(Cc1ccccc1)C(=O)c1csc(COCCO)n1 | inactive |
| COc1ccc(N2CCN(CCNS(=O)(=O)c3cccc4nsnc34)CC2)cc1 | inactive |
| COc1ccc(/C=C/C(=O)Nc2ccc3nc4c(c(Nc5ccccc5OC)c3c2)CCCC4)cc1 | active: 7.08 µM |
| COc1ccc(CN2CCC(CO)(Cc3cccc(C(F)(F)F)c3)CC2)cc1Cn1cccn1 | inconclusive: 11.2 µM [inhibitor, partial curve, poor fit] |
| O=C(NNS(=O)(=O)c1ccccc1[N+](=O)[O-])c1cccc(Cl)c1 | inconclusive: 5.62 µM [inhibitor, single point] |
| NC1=C(Br)C(=O)c2ncccc2C1=O | active: 2.82 µM |
| COc1ccc(-c2cc3onc(-c4c(Cl)cccc4Cl)c3c(=O)n2C)cc1 | inconclusive: 12.6 µM [inhibitor, single point] |
| O=S(=O)(NC1CC1)c1ccc(S(=O)(=O)N2CCc3ccccc32)cc1 | inconclusive: 12.6 µM [inhibitor, partial curve, poor fit] |
| Cc1ccc(C(=O)NNC(=O)c2ccncc2)cc1S(=O)(=O)N1CCOCC1 | inactive |
| CC(=O)c1cccc(-c2ccnc3c2CC(C(=O)N2CCN(C)CC2)O3)c1 (stereo not given) | inconclusive: 3.16 µM [inhibitor, single point] |
| CC1S/C(=C(\C#N)C(=O)NCc2ccco2)N(Cc2ccco2)C1=O (stereo not given) | inactive |
| O=C(CN1C(=O)CCSc2ccccc21)Nc1ccc2c(c1)OCO2 | inactive |
| COc1ccccc1N1CCN(C(=O)c2nc(SC)ncc2Cl)CC1 | inconclusive: 22.4 µM [inhibitor, single point] |
| COC(=O)c1cccc(N/C=C(\[N+](=O)[O-])S(=O)(=O)c2ccccc2)c1 | inconclusive: 7.94 µM [inhibitor, partial curve, poor fit] |
| FC(F)(F)c1nnc2ccc(N3CCN(c4ccccc4)CC3)nn12 | inconclusive: 0.282 µM [inhibitor, full curve, poor fit] |
| OC[C@@H]1CN(Cc2ccc(Cl)cc2)C[C@H](n2cnc3c(NCc4ccc(F)cc4)ncnc32)O1 | inconclusive: 35.5 µM [inhibitor, partial curve, poor fit] |
| CC(=O)NC(c1ccco1)c1cc(Cl)c2ccc(Cl)nc2c1O (stereo not given) | inconclusive: 20 µM [inhibitor, single point] |
| C/C=C/Cn1c(SCc2ccc(C)cc2)nc2c1c(=O)[nH]c(=O)n2C | inconclusive: 0.794 µM [inhibitor, full curve] |
